# Assay results taken from ChEMBL document CHEMBL1201862, “PubChem BioAssay data set” (2004).
#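 Grown in 96-well plates, cells were treated for 48 hours with each compound at five concentrations. Insufficient inhibition: endpoint recorded as highest concentration tested. GI50 is the concentration that inhibits growth by half.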 Calls of active or inactive are those of the source. Cut-off read from the data, not from the text of the source: active = GI50 up to about 1.1 µM and inactive = higher.
# Tested on: NCI-H322M
# Assay: growth of human tumour cells (NCI), 48 h
row,SMILES,GI50
1,CC(=O)Nc1ccc2nc(-c3cccc(F)c3)cc(O)c2c1,inactive: 12.2 µM
2,CC1(C)OC(=O)C(=Cc2ccc(O)cc2)C(=O)O1,inactive: > 100 µM
3,C#CCOCCCC(=O)O,inactive: > 100 µM
4,CCCCCCc1cc2cc(C(=O)NCc3ccccc3)c(=N)oc2cc1O,inactive: > 100 µM
5,O=C1NC(=S)NC(=O)C1=Cc1ccc(-c2ccccc2)cc1,inactive: > 100 µM
6,CC1=C(C(=O)Nc2ccccc2C)C(c2ccc(Cl)c(Cl)c2)C(C(=O)Nc2ccccc2C)=C(C)N1,inactive: 43 µM
7,CO/N=C\c1ccc2c(c1)Sc1ccccc1O2,inactive: > 100 µM
8,O=C(NC12CC3CC(CC(C3)C1)C2)n1cnc2cncnc21,inactive: 40.7 µM
9,CN(C)CCCNC(=O)c1cc2/c(=C\c3ccc(N(C)C)cc3)c3ccccc3n2[n+]1C,inactive: 25.4 µM
10,COC(=O)C(Cc1c[nH]c2ccccc12)NC1=Nc2ccncc2S(=O)(=O)N1c1ccccc1 (stereo unspecified),inactive: 19.9 µM
11,O=c1[nH]c(C2CCCCC2)nc2ccc(Cl)cc12,inactive: > 100 µM
12,O=C1CSC(c2cccc([N+](=O)[O-])c2)N1c1ccc(-n2c(-c3ccccc3)nc3ccccc3c2=O)cc1 (stereo unspecified),inactive: > 100 µM
13,Oc1cc(Cl)ncn1,inactive: > 100 µM
14,O=C(Cn1c(C(=O)/C=C/c2ccc(Cl)cc2)nc2ccccc21)c1ccc(Cl)cc1,inactive: 21.6 µM
15,Nc1nc2c(c(-c3ccccc3Cl)n1)COC/C2=C\c1ccccc1Cl,inactive: 16.6 µM
16,COc1ccc2c(c1)[n+]([O-])c(C#N)c(N1CCN(c3ccc([N+](=O)[O-])cc3)CC1)[n+]2[O-],inactive: 25.8 µM
17,O=C1CC(C(CC(=O)c2ccccc2)c2ccccc2)C(=O)c2ccccc2N1 (stereo unspecified),inactive: 54.6 µM
18,O=C(N/N=C(COc1ccccc1Cl)\N=C\c1ccncc1)c1ccncc1,inactive: > 100 µM
19,CC1OC(OCC2COC(O)(Oc3c(-c4ccc(O)c(O)c4)oc4cc(O)cc(O)c4c3=O)C(O)C2O)C(O)C(O)C1O (stereo unspecified),inactive: > 100 µM
20,CC(C)(C)[C@H]1CCC2(OCCO2)[C@](O)(CCCO)C1,inactive: > 100 µM
21,Cc1cccc(/C=N/NC(=S)NCCc2ccccn2)n1,inactive: 45.5 µM
22,COc1ccccc1/C=C\c1cnnc2ccccc12,inactive: > 10 µM
23,CCOC(=O)c1cn(CC)c(=O)n2c1nc1ccccc12,inactive: > 100 µM

row,SMILES,GI50
1,CC1(C)N=C(C2CCCN2C(=O)OCc2ccccc2)OC1=O (stereo unspecified),inactive: > 100 µM
2,COC(=O)CC1CN(C(=O)OCc2ccccc2)C(C)(C)O1 (stereo unspecified),inactive: > 100 µM
3,CCC1=CCN(c2cc(C)ccn2)OC1c1ccc(OC)cc1 (stereo unspecified),inactive: 60.4 µM
4,CCCCOc1ccc(S(=O)(=O)N/C(N)=N/c2ccc(Cl)cc2)cc1,inactive: 13.9 µM
5,COc1ccc(-c2cc(-c3ccc(Nc4ccnc5cc(Cl)ccc45)cc3)nc(N)c2C#N)cc1,inactive: > 100 µM
6,O=c1oc2ccc3ccccc3c2cc1-c1cn2c(n1)sc1ccccc12,inactive: > 100 µM
7,N#Cc1sc2c(c1O)c(=O)n(-c1ccccc1)c(=S)n2-c1ccccc1,inactive: > 100 µM
8,CCN(CC)CCN(C(=O)C(C)(C)C)c1ccccc1N,inactive: > 100 µM
9,NS(=O)(=O)c1ccc(NC(=O)Cc2nc3ccccc3s2)cc1,inactive: 16.4 µM
10,C[C@H]1COC2(c3ccccc3)CCC(=O)N12 (stereo partly specified),inactive: > 100 µM
11,[N-]=[N+]=NC(c1cn(C2CC(O)C(CO)O2)c(=O)[nH]c1=O)C(Br)Br (stereo unspecified),inactive: > 100 µM
12,COCCN(C(=O)c1ccccc1)C1CCC(=O)c2[nH]c3ccccc3c21 (stereo unspecified),inactive: 8.13 µM
13,CC[C@]1(c2ccc3c(c2)OCO3)C=[N+]([O-])O[C@H](OC2CCCC2(c2ccccc2)c2ccccc2)[C@@H]1OC(C)=O (stereo partly specified),inactive: 2.51 µM
14,Nc1ccc(/C=C/c2ccnc3ccccc23)cc1,inactive: 23.1 µM
15,CC1(C)N=C(N)N=C(N)N1c1cccc(OCc2cccc(N)c2)c1,inactive: 75.2 µM
16,C[n+]1c2ccccc2c(CNC(CCC(N)=O)C(=O)O)c2ccccc21 (stereo unspecified),inactive: 7.74 µM
17,Cc1ccccc1-c1nc2c(C(=O)NCCN(C)C)cccc2[nH]1,inactive: 34 µM
18,CCOC(=O)Oc1cc2c(ccn2C)c2c1c1ccccc1n2C(=O)OCC,inactive: > 100 µM
19,CCC/C=C/C=C/C1CC(O)C(O)C(=O)C1CO (stereo unspecified),inactive: > 100 µM
20,CC(C)(C)OC(=O)N1C(c2cccnc2)=CC[C@H]2C3CC=C(c4cccnc4)[C@@]3(C)CC[C@@H]21 (stereo partly specified),inactive: 13.9 µM
21,Cc1ccc(S[C@@](C=O)(NC(=O)OCc2ccccc2)C(F)(F)F)cc1,inactive: 24.9 µM
22,CN1CCCNCCN(CCc2ccccn2)CCCN(C)CC1,inactive: > 100 µM
23,CCCCNc1nc(C#N)c(N)s1,inactive: > 100 µM
